Holding throughout (conditions): 20 mM HEPES pH 7.9, 100 mM NaCl, 1 mM DTT, 0.2 mg/mL BSA, 0.02% Triton X-100, 2% milk, 0.4 mg/mL salmon testes DNA; 1 h; temperature not stated; high values mean tight binding; double strand, one strand shown; sequences stand for … in GCCTAGCAC…GTGCTAGGTCTTGATTCGCTTGACGCTGCTG
Assay [1] has as its target PU.1 (IVT) (UniProt P17947). Briefly: protein-binding microarray (PBM).
Assay [2] concerns the target PU.1 (endogenous, THP-1 nuclear extract) (UniProt P17947). In words: nuclear extract protein-binding microarray (nextPBM).
The target in assay [3] is T1, FLI1 (endogenous, THP-1 nuclear extract) (UniProt Q01543).
T1 sequence: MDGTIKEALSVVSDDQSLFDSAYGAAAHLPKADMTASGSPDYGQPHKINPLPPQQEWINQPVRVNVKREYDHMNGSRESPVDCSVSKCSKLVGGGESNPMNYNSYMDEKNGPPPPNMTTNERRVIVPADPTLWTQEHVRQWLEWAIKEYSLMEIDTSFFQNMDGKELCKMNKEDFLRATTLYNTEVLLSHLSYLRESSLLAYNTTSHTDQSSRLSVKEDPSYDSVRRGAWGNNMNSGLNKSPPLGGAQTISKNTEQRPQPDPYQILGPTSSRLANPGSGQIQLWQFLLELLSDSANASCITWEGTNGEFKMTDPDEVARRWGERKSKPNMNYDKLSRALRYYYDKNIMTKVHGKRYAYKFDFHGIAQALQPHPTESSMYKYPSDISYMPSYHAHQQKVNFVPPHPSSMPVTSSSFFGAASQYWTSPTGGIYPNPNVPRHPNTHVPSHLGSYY
Described as above.

The list shows a part of the results. For part of these data: At the low end of the ranking the order means little. For part of these data: Measured with an extract: partners may take part in the binding.

60 sequences from publication PMC6451091 can be followed below.

As to TGAAAGCAGAAGTGGCCAGG, the figures for the binding signal in assay [1], in assay [2] and in assay [3] were 4.3 z-score, 5.03 z-score and 1.56 z-score, respectively.

With TGAAAGAGGAACTCAGTCAT, the binding signal in assay [1] worked out at 5.4 z-score; in assay [2], 5.89 z-score; in assay [3], 1.68 z-score.

Take AGGAAGGGGAACTGAAAACG: the binding signal worked out at 3.94 z-score in assay [1], 3.7 z-score in assay [2] and 2.68 z-score in assay [3].

TAAATGAGGAACTGAATTTT: the binding signal in assay [1] is 6.92 z-score; in assay [2], 6.62 z-score; in assay [3], 2.59 z-score.

On to GAAAAGAGGAAGTGAGATGT, for which the binding signal stood at 8.73 z-score in assay [1], 7.38 z-score in assay [2] and 4.31 z-score in assay [3].

Regarding TGAAAAAGGAAGTCACAGTG, the binding signal in assay [1] amounted to 4.15 z-score; in assay [2], 4.03 z-score; in assay [3], 2.27 z-score.

Take CGAAAGGGGATGTGCTAAAC: the binding signal in assay [1] stood at 1.8 z-score; in assay [2], 2.13 z-score; in assay [3], 1.09 z-score.

As for GGTGTGGGGAAGTACTGTGT, the binding signal is 3.69 z-score in assay [1], 3.02 z-score in assay [2] and 1.42 z-score in assay [3].

With AAAAAAAGGAACTGGTTAGA, the binding signal in assay [1] was determined as 4.93 z-score; in assay [2], 4.29 z-score; in assay [3], 1.44 z-score.

With GAAAAAAGGAAGTCAAATTG, the binding signal in assay [1] is 5.97 z-score; in assay [2], 5.67 z-score; in assay [3] it was 2.6 z-score.

Consider CAAAAAGGGAAGTGGACGCT, for which the values for the binding signal in assay [1], in assay [2] and in assay [3] were 6.7 z-score, 6.81 z-score and 3.33 z-score, respectively.

On to ACGAAGAGGAAGTCCAGGAT, for which the figures for the binding signal in assay [1], in assay [2] and in assay [3] were 4.52 z-score, 5.35 z-score and 3.42 z-score, respectively.

For CATCAGAGGAAGTGAATAAA, the binding signal came out at 2.99 z-score in assay [1], 3.05 z-score in assay [2] and 2.44 z-score in assay [3].

As to AAAAACAGGAACTGTCTTTC, the binding signal in assay [1] came out at 6.51 z-score; in assay [2] it was 6.56 z-score; in assay [3] it was 2.64 z-score.

In the case of AAAAAAAGGAAGTGCTCAAG, the binding signal is 6.42 z-score in assay [1], 6.56 z-score in assay [2] and 2.75 z-score in assay [3].

For GGAAAGAGGAACTGGAATTG, the binding signal in assay [1] is 6.28 z-score; in assay [2], 6.85 z-score; in assay [3], 2.28 z-score.

Regarding AAAAAGAGGAAGTGAGATGG, the figures for the binding signal in assay [1], in assay [2] and in assay [3] were 8.88 z-score, 7.85 z-score and 4.29 z-score, respectively.

On to GGAGGAGGGAAGTGCTGAGT, for which the binding signal in assay [1] was determined as 2.42 z-score; in assay [2] it was 2.47 z-score; in assay [3], 1.35 z-score.

Regarding GTGGAGAGGAAGTGTTTGGG, the values for the binding signal in assay [1], in assay [2] and in assay [3] were 3.46 z-score, 3.58 z-score and 2.86 z-score, respectively.

On to CAGGGGAGGAAGTGATTGCG, for which the binding signal is 3.92 z-score in assay [1], 3.39 z-score in assay [2] and 3.17 z-score in assay [3].

Regarding GATAAGAGGAACTCTGCAGG, the binding signal in assay [1] turned out to be 3.27 z-score; in assay [2], 3.48 z-score; in assay [3], 1.13 z-score.

As to GAAAAAAGGAAGTGAGAACT, the binding signal in assay [1] was determined as 6.26 z-score; in assay [2] it was 6.41 z-score; in assay [3] it was 3.09 z-score.

CAAATGAGGCACTGATGCGG: the binding signal in assay [1] is -0.204 z-score; in assay [2] it was 0.227 z-score; in assay [3], -0.443 z-score.

As to AAAAAGAGGAAGTCTGGTGT, the figures for the binding signal in assay [1], in assay [2] and in assay [3] were 8.02 z-score, 7.47 z-score and 3.91 z-score, respectively.

Consider GAAATCAGGAAGTCCCATAG, for which the binding signal came out at 4.8 z-score in assay [1], 5.66 z-score in assay [2] and 2.62 z-score in assay [3].

TGTAAGAGGAACTGGTAAAG: the binding signal in assay [1] was found to be 3.6 z-score; in assay [2] it was 3.26 z-score; in assay [3], 1.34 z-score.

Take CTTGTGAGGAAGTGACTAGC: the binding signal in assay [1] turned out to be 3.66 z-score; in assay [2] it was 3.69 z-score; in assay [3], 2.09 z-score.

GAAATGGGGAAGTGTGAGTC: the binding signal came to 7.05 z-score in assay [1], 6.91 z-score in assay [2] and 3.36 z-score in assay [3].

Take GAAAAGAGGAAGTCAAATTG: the results for the binding signal in assay [1], in assay [2] and in assay [3] were 8.37 z-score, 7.29 z-score and 3.85 z-score, respectively.

Consider AGAAAGAGGAACTGGAAATG, for which the values for the binding signal in assay [1], in assay [2] and in assay [3] were 6.43 z-score, 6.68 z-score and 3.57 z-score, respectively.

As to GATTTGAGGAAGTGGGGGAA, the binding signal in assay [1] was determined as 6.86 z-score; in assay [2], 6.74 z-score; in assay [3], 3.58 z-score.

As for AAGGTGGGGAAGTGAAGAAA, the binding signal in assay [1] was found to be 2.62 z-score; in assay [2] it was 2.52 z-score; in assay [3], 1.44 z-score.

In the case of TGAATGAGGAACTGAAAAAT, the binding signal was 5.29 z-score in assay [1], 5.55 z-score in assay [2] and 1.92 z-score in assay [3].

For the sequence TAGATGAGGAAATGAAACAT, the binding signal came to 2.65 z-score in assay [1], 2.81 z-score in assay [2] and 1.95 z-score in assay [3].

Consider TAGATGAGGAAGTCGGGAAA, for which the binding signal in assay [1] is 4.77 z-score; in assay [2], 5.33 z-score; in assay [3] it was 2.27 z-score.

As for AAAAAAGGGAAGTGCAAGAT, the binding signal is 7.79 z-score in assay [1], 7.14 z-score in assay [2] and 3.43 z-score in assay [3].

Regarding CAGAATAGGAAGTGGAGAAT, the binding signal in assay [1] is 2.91 z-score; in assay [2], 3.41 z-score; in assay [3], 2.34 z-score.

With AAAAAGGGGAAGCCAGAAAT, the binding signal came out at 5.47 z-score in assay [1], 6.11 z-score in assay [2] and 2.38 z-score in assay [3].

Consider GGAGTGAGGAAGTGAGACAG, for which the binding signal came to 3.5 z-score in assay [1], 3.13 z-score in assay [2] and 1.94 z-score in assay [3].

As for AAAAAGGGGAAGTGCTTTCT, the results for the binding signal in assay [1], in assay [2] and in assay [3] were 8.76 z-score, 7.48 z-score and 3.89 z-score, respectively.

Turning to AAAAAAAGGAAGTCTTTCAT, the values for the binding signal in assay [1], in assay [2] and in assay [3] were 6.3 z-score, 5.58 z-score and 2.75 z-score, respectively.

With GGCTGGCAGAAGTACTGTGC, the binding signal in assay [1] is 0.226 z-score; in assay [2] it was 0.389 z-score; in assay [3], -0.483 z-score.

Take GAGGAGGGGAAGTGAAATAT: the binding signal came to 3.64 z-score in assay [1], 3.73 z-score in assay [2] and 2.32 z-score in assay [3].

In the case of CAGATGAGGAACTGATGCGG, the figures for the binding signal in assay [1], in assay [2] and in assay [3] were 3.9 z-score, 4.07 z-score and 1.2 z-score, respectively.

In the case of TCAAGAAGGAAGTGCCAAAT, the binding signal in assay [1] is 3.31 z-score; in assay [2], 3.17 z-score; in assay [3] it was 2.04 z-score.

Regarding GAGGAAGGGAAGTGAGACAT, the binding signal came out at 2.65 z-score in assay [1], 2.67 z-score in assay [2] and 1.58 z-score in assay [3].

For the sequence GAAATAAGGAAGTGCTCAGA, the binding signal turned out to be 6.31 z-score in assay [1], 6.63 z-score in assay [2] and 2.42 z-score in assay [3].

Take AAAAAAAGGAAGTGAAAAAT: the binding signal in assay [1] is 7.11 z-score; in assay [2], 6.46 z-score; in assay [3], 3.13 z-score.

In the case of GGGAGGAGGAACTGGGGATC, the binding signal in assay [1] came out at 1.9 z-score; in assay [2], 2.14 z-score; in assay [3], 0.466 z-score.

GATAAGAGGCAGTCCTCTGT: the binding signal is -0.225 z-score in assay [1], -0.14 z-score in assay [2] and -0.241 z-score in assay [3].

CTAAAAGGGAAGTGGATGCT: the values for the binding signal in assay [1], in assay [2] and in assay [3] were 4.85 z-score, 5.42 z-score and 2.62 z-score, respectively.

As to CAATGGAGGAAGTGGAGTTC, the binding signal was found to be 3.76 z-score in assay [1], 3.84 z-score in assay [2] and 2.48 z-score in assay [3].

Turning to AGGATGAGGAAGTGCAGTCT, the binding signal in assay [1] amounted to 5.97 z-score; in assay [2], 6.42 z-score; in assay [3], 3.28 z-score.

For the sequence GTGTTAGGGAAGTGGTGAGT, the binding signal in assay [1] was 3 z-score; in assay [2], 3.5 z-score; in assay [3], 1.29 z-score.

For AAATAGAGGAAGTGCTTATA, the values for the binding signal in assay [1], in assay [2] and in assay [3] were 7.29 z-score, 7.1 z-score and 3.59 z-score, respectively.

On to CAAGAGAGGAAGTCTCCCTA, for which the binding signal in assay [1] was 3.38 z-score; in assay [2], 3.82 z-score; in assay [3], 2.32 z-score.

As to ATGTGGAGGAAGTGTTTAGT, the binding signal in assay [1] was determined as 3.13 z-score; in assay [2], 2.68 z-score; in assay [3] it was 2.09 z-score.

Turning to GGAAGGAGGAAGTGCTTTGT, the binding signal in assay [1] turned out to be 6.31 z-score; in assay [2] it was 6.69 z-score; in assay [3], 3.48 z-score.

As for TAAAGGAGGAAGTGCGAACC, the binding signal in assay [1] is 5.34 z-score; in assay [2], 6.06 z-score; in assay [3], 2.77 z-score.

With GTAAGAAGGAAGTGAATCTA, the binding signal worked out at 3.33 z-score in assay [1], 3.48 z-score in assay [2] and 2.37 z-score in assay [3].
